# According to the antibiotic and cytotoxicity screens of Wong et al. (2023):
# The other results are listed elsewhere or left out.
# Tested on: HepG2
# Assay: cytotoxicity call (relative viability < 0.9)
# Conditions: 10 µM
row,Structure (SMILES),cytotoxicity call
1,C[C@@H]1CN([C@H](C)CO)S(=O)(=O)c2ccc(C#C[C@@H](C)O)cc2O[C@H]1CN(C)C(=O)CN(C)C,inactive
2,CCCC(=O)Nc1ccc2c(c1)C(=O)N(C)[C@H]1CC[C@@H](CC(=O)NCCN3CCCCC3)O[C@@H]1CO2,inactive
3,C[C@@H]1CN([C@@H](C)CO)C(=O)c2cc(NC(=O)Cc3ccccc3)ccc2O[C@@H](C)CCCCO[C@H]1CN(C)C(=O)C1CCCCC1,inactive

# Tested on: S. aureus RN4220
# Assay: growth inhibition call (relative growth <= 0.2)
# Conditions: 50 µM
row,Structure (SMILES),growth inhibition call
1,C[C@@H]1CCCCO[C@@H](CN(C)CC2CCCCC2)[C@@H](C)CN([C@@H](C)CO)C(=O)c2cc(NC(=O)c3ccccc3)ccc2O1,inactive
2,O=C(C1=C[C@@H](c2csc3ccccc23)C[C@@H](OCc2ccc(CO)cc2)O1)N1CCN(Cc2ccccc2)CC1,inactive
3,C[C@]12C(=O)N(CCCCCO)[C@@H]3C(=O)N(c4ccc(Cl)cc4)CC=C[C@]31O[C@@H]1/C=C\CCCOC(=O)[C@H]12,inactive
4,O=C(O)c1ccco1,inactive
5,COc1ccc(NC(=O)Nc2ccc3c(c2)C(=O)N([C@@H](C)CO)C[C@@H](C)[C@H](CN(C)S(=O)(=O)c2ccc(Cl)cc2)OCCCC[C@@H](C)O3)cc1,inactive
6,COc1ccc(CN2CCN(C(c3ccc(F)cc3)c3ccc(F)cc3)CC2)c(OC)c1OC.Cl,inactive
7,COc1ccc(C#Cc2cnc3c(c2)C(=O)N([C@@H](C)CO)C[C@H](C)[C@@H](CN(C)C(=O)CN(C)C)O3)cc1,inactive
8,CCCNC(=O)N(C)C[C@H]1Oc2cc(-c3ccc(C)cc3)ccc2S(=O)(=O)N([C@@H](C)CO)C[C@@H]1C,inactive
9,N=C1NC(=O)CS1,inactive
10,COc1ccc(S(=O)(=O)Nc2cccc3c2O[C@H](CN(C)S(=O)(=O)c2ccc(OC)cc2)[C@H](C)CN([C@H](C)CO)C3=O)cc1,inactive
11,CC1CC(OC(=O)C(O)c2ccccc2)CC(C)(C)C1 (stereo not drawn),inactive
12,C[C@H](CO)N1C[C@H](C)[C@H](CN(C)C(=O)c2cccc(F)c2)Oc2cc(-c3ccncc3)ccc2S1(=O)=O,inactive
13,CC(C)NC(=O)N(C)C[C@@H]1Oc2c(NC(=O)NC3CCCCC3)cccc2C(=O)N([C@H](C)CO)C[C@@H]1C,inactive
14,CCCC(=O)Nc1ccc2c(c1)C(=O)N(C)C[C@H](OC)[C@@H](C)CN(Cc1ccc(-c3ccccn3)cc1)[C@@H](C)CO2,inactive
15,Cc1noc(C)c1S(=O)(=O)Nc1cccc2c1O[C@H](CN(C)Cc1ccc3c(c1)OCO3)[C@H](C)CN([C@H](C)CO)C2=O,inactive
16,CC(=O)Nc1nnc(S(N)(=O)=O)s1,inactive
17,C[C@@H]1CN([C@@H](C)CO)C(=O)Cc2cc(NS(=O)(=O)c3cn(C)cn3)ccc2O[C@H]1CN(C)Cc1ccncc1,inactive
18,C[C@@H]1CCCCO[C@H](CN(C)Cc2ccc(C(F)(F)F)cc2)[C@@H](C)CN([C@H](C)CO)C(=O)c2cc(NC(=O)Nc3ccc(F)cc3)ccc2O1,inactive
19,O=c1cc(-c2ccccc2)sc2c1ccc1ccccc12,inactive
20,Cc1cc(C)c2ccc(Cl)nc2n1,inactive

row,Structure (SMILES),growth inhibition call
1,COc1ccc(CN(C)C[C@H]2OCCCC[C@H](C)Oc3ccc(NC(=O)Nc4c(C)noc4C)cc3C(=O)N([C@H](C)CO)C[C@@H]2C)cc1,inactive
2,C[C@@H]1CN([C@@H](C)CO)C(=O)c2cc(NS(C)(=O)=O)ccc2O[C@H]1CN(C)S(=O)(=O)c1ccc(F)cc1,inactive
3,O=C(C[C@H]1CC[C@@H]2[C@H](COC[C@H](O)CN2C(=O)Nc2ccc(Cl)c(Cl)c2)O1)NCc1ccc(Cl)c(Cl)c1,inactive
4,COc1ccc(NC(=O)N(C)C[C@@H]2OCCCC[C@H](C)Oc3ccc(NC(=O)Nc4cccc5ccccc45)cc3C(=O)N([C@H](C)CO)C[C@@H]2C)cc1,inactive
5,C[C@@H]1CN(CCO)C(=O)c2cc(NC(=O)Nc3ccccc3)ccc2O[C@@H](C)CCCCO[C@H]1CN(C)S(=O)(=O)c1ccc(F)cc1,inactive
6,COc1ccc(S(=O)(=O)N2C[C@H](O)COC[C@H]3O[C@@H](CC(=O)NCc4ccc(Cl)c(Cl)c4)CC[C@@H]32)cc1,inactive
7,C=CCOC(=O)[C@H]1[C@@H]2C(=O)O[C@@H](c3ccccc3)[C@@H](c3ccccc3)N2[C@@H](c2ccc(OCCOC(=O)[C@@H]3C[C@@H]4C(=O)N[C@@H](CCCCNC(C)=O)C(=O)N4[C@@H]3c3cccc(OCCO)c3)cc2)[C@]12C(=O)Nc1ccc(I)cc12,inactive
8,COc1ccc2c3c(n(c2c1)C)[C@@H](CO)N(CC1CCOCC1)C[C@]13CN(C1)C(=O)c1cccc(c1)F,inactive
9,C[C@@H]1CN([C@H](C)CO)C(=O)c2c(c3ccccc3n2C)-c2ccccc2CO[C@H]1CN(C)S(=O)(=O)c1cn(C)cn1,inactive
10,O=C(C[C@@H]1C=C[C@H](NC(=O)c2cccnc2)[C@H](CO)O1)NCCN1CCCCC1,inactive
11,C[C@H](CO)N1C[C@H](C)[C@H](CN(C)Cc2ccc(C(=O)O)cc2)Oc2c(NS(=O)(=O)c3cn(C)cn3)cccc2C1=O,inactive
12,C[C@@H]1CN([C@H](C)CO)C(=O)Cc2cc(NS(=O)(=O)c3cccs3)ccc2O[C@@H]1CN(C)CC1CC1,inactive
13,CN(C)CCCNC(=O)C[C@@H]1CC[C@@H]2[C@H](COc3ccc(NS(C)(=O)=O)cc3C(=O)N2C)O1,inactive
14,C[C@@H]1C(=O)O[C@H]2[C@H](O)[C@@]34[C@H]5C[C@@H](C(C)(C)C)[C@]36[C@@H](OC(=O)[C@@H]6O)O[C@@]4(C(=O)O5)[C@@]12O,inactive
15,O=C(C[C@@H]1CC[C@H]2[C@@H](COC[C@@H](O)CN2S(=O)(=O)c2ccc(F)cc2)O1)N1CCc2ccccc2C1,inactive
16,COc1ccc([C@@H]([C@H](Cc2ccccc2)OC(C)=O)N2Cc3c(noc3[C@@H](O)c3ccccc3)[C@@H]2Cc2ccccc2)cc1,inactive
17,Cc1noc(C)c1S(=O)(=O)N(C)C[C@H]1OCc2cn(nn2)CCCC(=O)N([C@H](C)CO)C[C@@H]1C,inactive
18,C[C@@H]1CN([C@H](C)CO)S(=O)(=O)c2ccc(C#C[C@@H](C)O)cc2O[C@H]1CN(C)C(=O)CN(C)C,inactive
19,CCCC(=O)Nc1ccc2c(c1)C(=O)N(C)[C@H]1CC[C@@H](CC(=O)NCCN3CCCCC3)O[C@@H]1CO2,inactive
20,C[C@@H]1CN([C@@H](C)CO)C(=O)c2cc(NC(=O)Cc3ccccc3)ccc2O[C@@H](C)CCCCO[C@H]1CN(C)C(=O)C1CCCCC1,inactive
